The other results are listed elsewhere or left out. At the low end of the ranking the order means little.

In article PMC10668032 one finds binding signal data, which are given here for 94 sequences.

For the assay, the target named is SIX1-Q177R homeodomain (UniProt Q15475). Briefly: universal protein binding microarray. As to conditions: Universal all-10-mer PBM (8x60K, AMADID 030236), 300 nM GST-tagged protein, Alexa Fluor 488 anti-GST; buffer, salt, pH and temperature not stated; high values mean tight binding; most listed sequences are background and not binding sites; double strand, one strand shown.
Turning to GCCTTGCC, the binding signal was -0.344 E-score.
For ACCATAAA the value was 0.00583 E-score; for CACTACTG, 0.171 E-score; for ACGATGAG, -0.0408 E-score.
For GATTAAAA the value was -0.213 E-score; for AAATTGAG, -0.198 E-score.
Under TGCCAGAA stands -0.129 E-score; under AGCTTCTA, -0.249 E-score; under CGAAAACC, -0.0505 E-score.
Regarding GTCCTTAA, the binding signal was -0.0211 E-score.
For CCATCGCG the value was -0.0716 E-score; for ACAACAGC, -0.12 E-score; for ACCAAACG, -0.0506 E-score.
Under CTGACATC stands -0.242 E-score; under AGTGCATG, 0.0709 E-score.
Under ACTGGGGG stands 0.117 E-score; under CTGGGGAA, -0.129 E-score; under CTTACAGA, -0.151 E-score.
Regarding ATTCCTCA, the binding signal was -0.187 E-score.
For GGAGCAAC the value was -0.0873 E-score.
For ATGCGGCA, the binding signal is -0.149 E-score.
Regarding CATTCAGC, the binding signal is -0.156 E-score.
As to AGAGCATA, the binding signal is -0.229 E-score.
Take TACGGAGA: the binding signal is -0.0464 E-score.
Under GCGACATA stands -0.208 E-score; under GCAGAGCA, -0.0486 E-score; under AAGTGTTC, 0.285 E-score.
For ATATAGAT the value was -0.163 E-score; for CATAGTGA, -0.0741 E-score.
Under ACTTACTG stands -0.11 E-score; under CCCCCCTA, 0.232 E-score.
Regarding CAGCATGC, the binding signal is -0.269 E-score.
For AATCAGAA the value was -0.142 E-score.
Turning to AAACTGGG, the binding signal was -0.139 E-score.
Under CACTCGGG stands 0.225 E-score; under GCAGCCAC, -0.188 E-score.
Under CCATCGGG stands 0.00323 E-score; under TGCACACA, 0.144 E-score.
Under CCGAGGCG stands -0.0343 E-score; under GCTAATCC, 0.0769 E-score.
Regarding CAACTACA, the binding signal stood at 0.247 E-score.
Take ACAACTCC: the binding signal is -0.0321 E-score.
Under CCGCACCA stands 0.16 E-score; under AATTAGGA, -0.169 E-score.
For the sequence CAGACACC, the binding signal turned out to be 0.456 E-score.
For the sequence ATGTCGGG, the binding signal turned out to be 0.199 E-score.
Regarding AGACTGGA, the binding signal is -0.0648 E-score.
Regarding GCCAAAGC, the binding signal is -0.1 E-score.
Under GCCCTGGA stands 0.0652 E-score; under GGAGGTAA, -0.142 E-score.
Under CGAGCTAA stands -0.144 E-score; under CGACGCGC, 0.0472 E-score.
Consider AAGATTGC, for which the binding signal was -0.163 E-score.
Regarding GCTCACAA, the binding signal was -0.0753 E-score.
With ATCTACAT, the binding signal is -0.23 E-score.
For ACGTTTTG, the binding signal is -0.209 E-score.
For CATTGTTC the value was 0.00531 E-score; for ATCAGCGC, -0.00585 E-score; for ACCTAGAT, 0.0693 E-score.
Under ATCACAAT stands -0.0971 E-score; under GGACAGCA, -0.107 E-score; under GCCAACCA, -0.22 E-score.
Under AACACGGC stands 0.35 E-score; under GGTGCATA, 0.195 E-score.
Turning to CTAGCAAA, the binding signal amounted to 0.173 E-score.
With ATATTTCG, the binding signal was -0.0673 E-score.
On to AGGAACTA, for which the binding signal was -0.124 E-score.
On to ATGCGCAT, for which the binding signal is -0.107 E-score.
Under CTGCATTA stands 0.0596 E-score.
Under AGAATTGA stands -0.0789 E-score; under GTCTATTA, -0.0908 E-score; under AAGGTCCT, -0.065 E-score.
Regarding CCGCCCCA, the binding signal was 0.239 E-score.
Turning to ACGACGCT, the binding signal was -0.106 E-score.
Regarding TAGCAAGA, the binding signal was -0.0253 E-score.
In the case of GCAAGAAC, the binding signal is -0.141 E-score.
For ATGAAAAC the value was -0.00859 E-score.
On to CGCCTTGA, for which the binding signal worked out at 0.0104 E-score.
In the case of ACTAGCAT, the binding signal was -0.157 E-score.
As to AAACTAAA, the binding signal is -0.199 E-score.
On to AGATAGCT, for which the binding signal was -0.202 E-score.
AGACTGCC: the binding signal was -0.184 E-score.
AGTATACA: the binding signal came out at 0.235 E-score.
For the sequence CGTTCAAA, the binding signal was -0.206 E-score.
Under CGGGCCTA stands -0.167 E-score; under CGTCATTA, -0.0324 E-score; under GTACGCAC, 0.0455 E-score.
Turning to AAAGATAC, the binding signal worked out at 0.115 E-score.
In the case of ACTATTAG, the binding signal was -0.0437 E-score.
As to ATCGTAAA, the binding signal is -0.0685 E-score.
Under AGTACCTC stands 0.0726 E-score.
As for TCAGGTAA, the binding signal is -0.182 E-score.
For AGTAGGAC the value was -0.139 E-score; for GTCAGGGA, -0.00635 E-score.
